These are yes or no findings as the source states them, for the method shown. For some of these results: Binding seen in cells or lysates may run through a third protein. Some binding calls cover weakened binding; strength is not graded here.
How the values were obtained:
[1] = target: PICK1 (endogenous, cortical neurons) (rat (endogenous in cortical neurons)) (UniProt Q9EP80); test: co-IP; lysates of cultured cortical neurons (0.5% TX-100 diluted to 0.25%, 150 mM NaCl, 20 mM Tris pH 7.5) immunoprecipitated with anti-PICK1 or control IgG; western blotting
[2] = target: GluA2 (endogenous, cortical neurons) (rat (endogenous in cortical neurons)) (UniProt P19491); test: co-IP; lysates of dissociated cortical neurons immunoprecipitated with anti-GluA2 or non-immune mouse IgG; western blotting with anti-GluA2, anti-PICK1 and anti-Cdc42
GST–PICK1 (1-379) = GST–PICK1 (1-379) (UniProt Q9EP80); test: pull-down; GST–PICK1 wild type or truncation mutants incubated with purified his6-tagged flagCdc42 or mycRac1; western blotting with anti-flag or anti-myc; both purified
GST–PICK1 (105-416) = GST–PICK1 (105-416) (UniProt Q9EP80); test: as above
GST–PICK1 (wild-type) [3] = target: GST–PICK1 (wild-type) (UniProt Q9EP80); test: as above
GST–PICK1 (wild-type) [4] = target: GST–PICK1 (wild-type) (UniProt Q9EP80); test: pull-down; GST fusion proteins (GST–PICK1, GST–PAK–CRIB) incubated with lysates of COS7 cells expressing epitope-tagged GTPases; bound proteins detected by western blotting with anti-myc; only the target purified

Protein sequences, listed by entry. Tags and fused reporters are not part of them. Lines headed by an entry give the natural chain unless they say otherwise; changes in a name come on top. Chains listed by the source or under a name are the forms on record and can include a tag or linker. Residues count along the entry.
UniProt P19491, residues 22-883: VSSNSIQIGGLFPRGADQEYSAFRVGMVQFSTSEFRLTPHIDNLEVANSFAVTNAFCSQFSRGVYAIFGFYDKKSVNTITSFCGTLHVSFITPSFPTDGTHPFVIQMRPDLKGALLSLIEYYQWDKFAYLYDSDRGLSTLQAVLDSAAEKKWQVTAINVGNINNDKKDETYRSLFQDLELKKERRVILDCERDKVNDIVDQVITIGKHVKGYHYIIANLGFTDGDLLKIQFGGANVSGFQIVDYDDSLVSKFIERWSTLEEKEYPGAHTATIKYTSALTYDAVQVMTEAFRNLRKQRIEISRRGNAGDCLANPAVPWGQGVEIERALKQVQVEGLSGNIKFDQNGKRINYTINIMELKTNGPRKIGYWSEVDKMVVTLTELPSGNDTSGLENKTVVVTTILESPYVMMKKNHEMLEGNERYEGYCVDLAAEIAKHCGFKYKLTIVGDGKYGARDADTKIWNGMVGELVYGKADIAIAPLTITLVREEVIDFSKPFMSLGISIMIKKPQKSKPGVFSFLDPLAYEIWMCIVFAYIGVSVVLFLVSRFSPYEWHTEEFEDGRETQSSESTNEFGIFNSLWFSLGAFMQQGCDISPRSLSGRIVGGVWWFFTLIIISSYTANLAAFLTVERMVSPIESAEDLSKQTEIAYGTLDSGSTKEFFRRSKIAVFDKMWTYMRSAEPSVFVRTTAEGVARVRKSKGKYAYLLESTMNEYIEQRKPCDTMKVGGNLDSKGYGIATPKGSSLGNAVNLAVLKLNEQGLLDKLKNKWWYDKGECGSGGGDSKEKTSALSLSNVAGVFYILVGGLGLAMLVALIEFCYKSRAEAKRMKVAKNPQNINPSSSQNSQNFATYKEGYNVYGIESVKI
UniProt Q8CFN2: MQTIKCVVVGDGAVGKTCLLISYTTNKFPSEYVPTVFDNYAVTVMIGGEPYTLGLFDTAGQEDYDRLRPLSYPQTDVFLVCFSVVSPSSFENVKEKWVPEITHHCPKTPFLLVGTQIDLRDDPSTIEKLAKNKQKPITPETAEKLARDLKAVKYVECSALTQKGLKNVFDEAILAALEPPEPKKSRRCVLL
UniProt P60953: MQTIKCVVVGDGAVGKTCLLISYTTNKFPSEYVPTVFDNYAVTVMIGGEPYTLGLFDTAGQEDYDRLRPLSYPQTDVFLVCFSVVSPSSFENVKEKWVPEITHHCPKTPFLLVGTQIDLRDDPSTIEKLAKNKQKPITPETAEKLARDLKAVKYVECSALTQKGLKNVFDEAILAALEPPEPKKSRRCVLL
myc-tagged Cdc42(N17) (P60953, form named): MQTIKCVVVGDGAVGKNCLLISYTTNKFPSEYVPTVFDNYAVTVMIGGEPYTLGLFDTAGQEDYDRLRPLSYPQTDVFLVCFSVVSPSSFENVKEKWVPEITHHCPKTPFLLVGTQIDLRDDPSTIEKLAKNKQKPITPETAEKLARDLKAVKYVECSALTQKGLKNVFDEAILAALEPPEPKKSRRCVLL
myc-tagged Cdc42(V12) (P60953, form named): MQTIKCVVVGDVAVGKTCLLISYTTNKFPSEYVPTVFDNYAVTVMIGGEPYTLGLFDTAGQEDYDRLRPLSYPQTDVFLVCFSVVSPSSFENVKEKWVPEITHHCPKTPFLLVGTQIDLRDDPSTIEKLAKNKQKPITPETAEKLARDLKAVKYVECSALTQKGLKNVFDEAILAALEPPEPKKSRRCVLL

For “Cdc42 (endogenous, cortical neurons) (from UniProt Q8CFN2 1-191)”, the binding [1] was “binds”.

“PICK1 (endogenous, cortical neurons) (from UniProt Q9EP80 1-416)” was tested, and the binding [2] was “binds”.

For “his6-tagged flagCdc42 (from UniProt P60953 1-191)”, the binding (GST–PICK1 (1-379)) was “binds”, the binding (GST–PICK1 (105-416)) was “no binding” and the binding (GST–PICK1 (wild-type) [3]) was “binds”.

With “myc-tagged Cdc42(N17) (from UniProt P60953 1-191)” the binding (GST–PICK1 (wild-type) [4]) was “binds”.

For “myc-tagged Cdc42(V12) (from UniProt P60953 1-191)”, the binding (GST–PICK1 (wild-type) [4]) was “binds”.

Reference: paper PMC4300402
